Data: ChEMBL document CHEMBL4888484, “Replenishing the malaria drug discovery pipeline: Screening and hit evaluation of the MMV Hit Generation Library 1 (HGL1) against asexual blood stage Plasmodium falciparum ,using a nano luciferase reporter read-out” (2022)
About 540 (0.36%) of roughly 150,000 compounds showed an effect of 50% or more. The list shows a part of the results.

system: Plasmodium falciparum; assay: Primary screen in NF54 nanoGlo assay, in single point, at 2uM, 72h; a lower Z score goes with more inhibition; assay type: functional, Erythrocyte; conditions: timepoint 72 hour

Which “% Inhibition” value does the source give for `O=S1(=O)CCC(NC[C@@H]2CCC[C@H]2O)c2cc(Br)ccc21` (some centres undefined) here?
Its value is -4%.

And the Z score?
The Z score was 0.71.

Which “% Inhibition” value does the source give for `Cc1nnccc1C(=O)N1CCC[C@H]1c1ncc(Br)cn1` here?
The value was -5%.

What about the Z score of the same compound?
The Z score was 0.79.

Which “% Inhibition” value does the source give for `Cc1ccc(CNC(=O)[C@@H]2CCCN2S(C)(=O)=O)c2cccnc12` here?
Its value is -6%.

And the Z score?
Its Z score is 0.7.

With `CC(C)N(Cc1ccccc1Cl)C(=O)[C@H]1CCN(C)C1` as the compound, how does the “% Inhibition” value read?
Its value is 2%.

What about the Z score of the same compound?
The Z score was -0.26.

Which results are given for `CO[C@H]1C[C@H]2CN(C(=O)COc3cccc(C)c3)[C@@H](Cc3ccccc3)C(=O)N2C1`?
% Inhibition: -5%; Z score: 0.76

With `CCc1ccc(S(=O)(=O)N[C@H]2CNC[C@@H]2OC)s1` as the compound, how does the “% Inhibition” value read?
Its value is -4%.

And the Z score?
The Z score was 0.76.

How did the “% Inhibition” value turn out when `C[C@H](NC(=O)C1(O)CCCC1)c1noc(-c2ccccc2)n1` was run?
Its value is 8%.

What about the Z score of the same compound?
Its Z score is -0.76.

With `N#Cc1cccc(CN2CCN([C@H]3CCOC4(CCOCC4)C3)CC2)c1` as the compound, how does the “% Inhibition” value read?
Its value is -7%.

What about the Z score of the same compound?
The Z score was 0.94.

`O=C(Cc1ccc(F)c(Br)c1)NC[C@H]1CCCNC1` was tested. Which “% Inhibition” value did it give?
Its value is -7%.

What about the Z score of the same compound?
Its Z score is 1.1.

What does the source list for `C[C@](C#N)(NC(=O)CN1CCCCCC1)C1CC1`?
% Inhibition: 7%; Z score: -0.67

How did the “% Inhibition” value turn out when `Cc1cc(C(=O)N2C[C@H]3CC[C@@H](C2)N(C)C3)c(C)n1C` was run?
Its value is 1%.

What about the Z score of the same compound?
Its Z score is -0.25.

For `O=C(NCc1ccc2c(c1)CCN2C(=O)c1ccccc1)Nc1ccccc1C(F)(F)F`, which “% Inhibition” value is on record?
The value was -8%.

What about the Z score of the same compound?
The Z score was 1.49.

`CCOC(=O)c1ccc(NC(=O)[C@H]2C[C@@H]3CCCN3[C@]23C(=O)Nc2ccc(F)cc23)cc1` was tested. Which “% Inhibition” value did it give?
The value was 1%.

What about the Z score of the same compound?
Its Z score is -0.16.

Which “% Inhibition” value does the source give for `CC(C)c1cc(N(C)Cc2nnc(-c3ccco3)o2)n[nH]1` here?
Its value is -8%.

And the Z score?
The Z score was 1.46.

`CCc1ncc(CN(C)C(=O)c2ccc(O)c(Cl)c2)s1` was tested. Which “% Inhibition” value did it give?
Its value is -7%.

What about the Z score of the same compound?
The Z score was 0.8.

Which results are given for `CC(C)(C)NC(=O)c1ccnc(OCC2CCOCC2)c1`?
% Inhibition: -13%; Z score: 2.55

`COc1cccc2nc(C[C@H]3CN(Cc4ccccc4OC(F)(F)F)CC[C@H]3CC(=O)O)[nH]c12` was tested. Which “% Inhibition” value did it give?
Its value is 31%.

What about the Z score of the same compound?
Its Z score is -3.46.

With `CC(C)n1ccc(CN2C(=O)[C@@H]3CCCCN3C2=O)n1` as the compound, how does the “% Inhibition” value read?
Its value is 1%.

What about the Z score of the same compound?
The Z score was -0.08.

Which results are given for `CCC1(CC)CN(C(=O)c2ccnc(C3CCCC3)n2)C1`?
% Inhibition: -9%; Z score: 1.1

What does the source list for `O=S1(=O)[C@H](c2ccccc2)CCN1Cc1ncnn1CCF`?
% Inhibition: -9%; Z score: 1.1

`Cc1ncsc1CCN(C)CCn1cc[nH]c1=O` was tested. Which “% Inhibition” value did it give?
Its value is -15%.

What about the Z score of the same compound?
Its Z score is 3.22.

With `CCC(C(=O)N1CCN(CC(OCc2ccc(C#N)cc2)c2cccc(N3CCCC3)c2)CC1)c1ccccc1` (centres undefined) as the compound, how does the “% Inhibition” value read?
Its value is -14%.

What about the Z score of the same compound?
The Z score was 1.88.

Which “% Inhibition” value does the source give for `O=C(Nc1cccs1)N1CCC(Oc2ccccn2)CC1` here?
The value was -11%.

And the Z score?
The Z score was 2.03.

Which “% Inhibition” value does the source give for `CN(CCN(C(=O)c1ccc2ccncc2n1)C1CC1)C1CC1` here?
Its value is 0%.

What about the Z score of the same compound?
Its Z score is 0.

Which “% Inhibition” value does the source give for `C[C@@H](C(=O)N1CCC2(CC1)Cc1cccc(c1)Oc1cccc(c1)CCNC2=O)n1cnnn1` here?
Its value is -14%.

And the Z score?
The Z score was 1.74.

Which “% Inhibition” value does the source give for `O=C1CN(C(=O)c2nccc3cccnc23)C2(CN1)COC2` here?
Its value is 0%.

What about the Z score of the same compound?
Its Z score is 0.02.

What does the source list for `COC(=O)NC[C@H](O)c1csc2ccccc12`?
% Inhibition: -3%; Z score: 0.41

With `O=C1NCCN2CCN(Cc3c[nH]nc3C3CCCCC3)C[C@@H]12` as the compound, how does the “% Inhibition” value read?
The value was 8%.

And the Z score?
Its Z score is -1.03.

For `Cc1ccc(S(=O)(=O)C[n+]2sc(N(c3ccccc3)c3ccccc3)nc2-c2ccccc2)cc1`, which “% Inhibition” value is on record?
The value was 0%.

And the Z score?
Its Z score is 0.04.

With `CCN(C)CC(O)CN[C@H](C)c1ccccc1Cl` (some centres undefined) as the compound, how does the “% Inhibition” value read?
Its value is -5%.

What about the Z score of the same compound?
The Z score was 0.82.

Which results are given for `CCC(=O)N(CC(=O)Nc1nc(-c2ccccc2)cn1-c1ccc(OC)c(OC)c1)C1CC1`?
% Inhibition: -7%; Z score: 0.83

How did the “% Inhibition” value turn out when `C[C@H]1CNC(=O)CCN1C(=O)Nc1ccc(CCc2ccccn2)cc1` was run?
Its value is -7%.

And the Z score?
Its Z score is 1.34.

What does the source list for `C[C@]1(C(=O)NCCCNc2ncccn2)CC1(Cl)Cl`?
% Inhibition: -1%; Z score: 0.16

Which “% Inhibition” value does the source give for `CC(C)CC(=O)Nc1ccc(N2CCCN(C(=O)CC(C)C)CC2)c(C(=O)NCc2ccc(F)cc2)c1` here?
The value was -12%.

And the Z score?
Its Z score is 2.1.

`CN(CCCNC(=O)[C@@H]1Cc2ccccc2CN1C)c1ccccc1` was tested. Which “% Inhibition” value did it give?
Its value is -13%.

What about the Z score of the same compound?
Its Z score is 2.4.

How did the “% Inhibition” value turn out when `CCN(C)Cc1ccc(F)cc1C(=O)OC` was run?
Its value is -7%.

And the Z score?
The Z score was 0.88.

Which results are given for `O=C(Nc1cc(Cl)cc(Cl)c1)C1[C@@H]2C=C[C@]3(O2)C(C(=O)NC2CCCCC2)N(CCN2CCCCCC2)C(=O)[C@H]13` (some centres undefined)?
% Inhibition: 21%; Z score: -3.26

What does the source list for `Cc1cc(C2CCC(C(=O)NCc3cccc(F)c3)CN2C(=O)C2CCCC2)ccc1F` (centres undefined)?
% Inhibition: 0%; Z score: 0

`CC(C)NC(=O)N(Cc1ccc(F)cc1)c1cccc(CC(=O)NCc2ccc3c(c2)OCO3)c1` was tested. Which “% Inhibition” value did it give?
Its value is 2%.

And the Z score?
The Z score was -0.2.

How did the “% Inhibition” value turn out when `Nc1nc2nc(-c3ccccc3)oc2c(=O)[nH]1` was run?
The value was -8%.

What about the Z score of the same compound?
Its Z score is 0.94.

For `CC(=O)N1CC(OCC(=O)Nc2cc(F)ccc2NC(=O)c2ccccn2)C1`, which “% Inhibition” value is on record?
The value was -21%.

What about the Z score of the same compound?
The Z score was 3.65.

Which “% Inhibition” value does the source give for `O=S(=O)(Nc1cncnc1-c1ccccc1)c1cncc(Cl)c1` here?
The value was 1%.

And the Z score?
Its Z score is -0.13.
